Test results as given in the RNAGym collection of RNA variant scans (doi:10.7554/elife.90254).
Read counts are not given, so values of variants with three or more changes are uncertain.

B1: OR4K15 (parent)
chain: GUUAACGGUCAUAGGCCAUGGAAACUAGGAGCACCAUUUCGCUGCCAGUGAAGAAAUGAACAAAGAAAAUCUGGGCCAGGCAGGCAUCAAAAGAAAUAGUCUUGCGCUCAACCAGAAAGUCUGUAAUCAUUUUAAGGGUA

Variants of: B1
Experiment: self-cleavage, relative activity (ratio to wild type); higher = more cleavage; in vitro, sequencing; the parent is a self-cleaving ribozyme

Variant | self-cleavage
GUUAACGGUCAUAGGCCAUGGAAGCUAGGAGCACCAUUUCGCUGCCAGUGAAGAAAUGAACAAAGAAAAUCUGGGCCAGGCAGGCUUCAAAAGAAAUAGUCUUGCGCUCAACCAGAAAGUCUGUAAUCAUUCUAAGGGUA | 0.89
GUUAACGGUCAUAGGCCAUGGAAGCUAGGAGCACUAUUUCGCUGCCAGUGAAGGAAUGAACAAAGAAAAUCUGGGCCAGGCAGGCAUCAAAAGAAAUAGUCUUGCGCUCAACCAGAAUGUCUGUAAUCAUUUUAGGGGUA | 0.4
GUUAACGGUCAUAGGCCAUGGAAGCUAGGAGCACCAUUUCGCUGCCAGUGAAGAAAUGAACAAAGAAAAUCUGGGCCGGGCAGGCAUCAAAAGAAAUAGUCUUGCGCUCAACCAGAAAGUCUGUAAUCAUUUUAAGGGCA | 0.44
GUUAACGGUCAUAGGCCAUGGAAGCUAGGAGCACCAUUUCGCUGCCAGUGAAGAAAUGAACAAAGAAAAUCUGGGCCAGGCAGGCAUCAAAAGAGAUAGUCUUGGGCUCAACCAGAAAGUCUGUAAUCAUUUUAAGGGUA | 0.05
GUUAACGGUCAUAGGCCAUGGAAGCUAGGAGCACCAUUUCGCUGCCAGUGAAGAAAUGAACAAAGAAAAUCUGGGCCAGGCAGGCAUCGAAAGAGAUAGUCUUGCGCUCAACCAGAAAGCCUGUAAUCAUUUUAAGGGUA | 0.98
GUUAACGGUCAUAGGCCAUGGAAGCUAGGAGCACCAUUUCGCUGCCAGUGAAGAAAUGAACAAAGAAAAUCUGGGCCAGGCAGGCAUCAAAAGAAAUAGUCUUGCGCUCAACCAGAAGGUCUGUGAUCAUUAUAGGGGUA | 0.03
GUUAACGGUCAUAGGCCAUGGAAGCUAGGAGCACCAUUUUGCUGCCAGUGAAGAAAUGAACAAAGAAAAUCUGGGCCAGGCAGGCAUCAAAAGAAAUAGUCUUGCGCUCAACCAGUAAGUCUGUAAUCAUUUUAAGGGUA | 0.62
GUUAACGGUCAUAGGCCAUGGAAGCUAGGAGCACCAUUUCGCUGCCAGUGAAGAAAUGAACAAAGAAAAUCUGGGCCAGGCAGGCAUCAAAAGAAAUAGUCUUGCGCUCAACCAGAACGUCCGUAAGCAUUUUAAGGGUA | 0.37
GUUAACGGUCAUAGGCCAUGGAAGCUAGGAGCACCAUUUCGCUGCCAGUGAAGAAAUGAACAAAGAAAAUCUGGGCCAGGCAGGCAUCAGAAGAAAUAGUCUUGCGCUCAACCAGAAAGUCUGUAAUCAUUUUAAGGGCA | 1.03
GUUAACGGUCAUAGGCCAUGGAAGCUAGGAGCACCAUUUCGCUGCCAGUGAAGAAAUGAACAAAGAAAAUCUGGGCCAGGCGGGCAUCAAAAGAAAUAGUCUUGCGCUCAACCAGAAAGUCUGUAAUCAUUUUGAGGGUA | 0.53
GUUAACGGUCAUAGGCCAUGGAAGCUAGGAGCACCAUUUCGCUGCCAGUGAAGAAAUGAACAAAGAAAAUCUGGGCCAGGCAGGCAUCAAAAGCAAUAGUCUUGCGCUCAACCAGAAAGUCUGUAAUCAUUUUAAGGGUG | 1.23
GUUAACGGUCAUAGGCCAUGGAAGCUAGGAGCACCAUUUCGCUGCCAGUGAAGAAAUGAACAAAGAAAAUCUGGGCCAGGCGGGCAUCAAAAGGAAUAGUCUUGCGCUCAACCAGAAAGUCUGUAAUCGUUUUAAGGGUA | 0.81
GUUAACGGUCAUAGGCCAUGGAAGCUAGGAGCACCAUUUCGCUGCCAGUGAAGAAAUGAACAAAGAAAAUCUGGGCCAGGCAGGCAUCAAAAGGAAUAGUCUUGCGCUCAACCAGAAAGUCUGUAAACAUUUUAAGGGUA | 1.63
GUUAACGGUCAUAGGCCAUGGAAGCUAGGAGCAUCAUUUCGCCGCCGGUGAAGAAAUGAACAAAGAAAAUCUGGGCCAGGCAGGCAUCAAAAGAAAUAGUCAUGCGCUCAACCAGAAAGUCUGUAAUCAUUUUAAGGGUA | 0.2
GUUAACGGUCAUAGGCCAUGGAAGCUAGGAGCACCAUUUCGUUGCCAGUGAAGAAAUGAACAAAGAAAAUCUGGGCCAGGCAGGCAUCAAAAGAAAUAGUCUUGCGCUCAACCAGAACGUCUGUAAUCAUUUUAAGGGUA | 0.61
GUUAACGGUCAUAGGCCAUGGAAGCUAGGAGCACCAUUUCGCUGUCAGUGAAGAAAUGAACAAAGAAAAUCUGGGCCAGGCAGGCAUCAAAAGAAAUAGUCUUGCGCUCAACCAGAAAGUCUGUAAUCGUUUUAAGGGUA | 0.02
GUUAACGGUCAUAGGCCAUGGAAGCUAGGAGCACUAUUUCGCUGCCAGUGAAGGAAUGAACAAAGAAAAUCUGGGCCAGGCAGGCAUCAAAAGAAGUAGUCUUGCGCUCAACCAGAAAGUCUGUAAUCAUUCUAAGGGUA | 1.05
GUUAACGGUCAUAGGCCAUGGAAGCUAGGAGCACCAUUUCGCUGCCAGUGAAGAAAUGAACAAAGAAAAUCUGGGCCAGGCAGGCAUCAAAAGAGGCAGUCUUGCGCUCAACCAGAUAGACUGUAAUCAUUUUAAGGGUA | 0.69
GUUAACGGUCAUAGGCCAUGGAAGCUAGGAGCACCAUUUCGCUGCCAGUGAAGAAAUGAACAAAGAAAAUCUGGGCCAGGCAGGCAUCAUAAGUAAUAGUCUUGCGCUCAACCAGAAAGUCUGUGGUCAUUUUAAGGGUA | 0.62
GUUAACGGUCAUAGGCCAUGGAAGCUAGGAGCACCAUUUCGCUGCCAGUGAAGAAAUGAACAAAGAAAAUCUGGGCCAGGCAGGCAUCAAAAGAAAUAGUCUUGCGCUCAACCAGAAGGUCUGUAAUCGUUUUAAGGGUA | 0.41
GUUAACGGUCAUAGGCCAUGGAAGCUAGGAGCACCAUUUCGCUGCCAGUGAAGAAAUGAACAAAGAAAAUCUGGGCCAGGCAGGCAUCAAAGGAAGUAGUCUUGCGCUCAACCGGAAAGUCUGUAAUCAUUUUAAGGGUA | 0.25
